Data taken from the supplement of paper PMC4604168 (melanoma cell lines).
The other results are listed elsewhere or left out. Many values rest on one well or one pass, so single values are uncertain.

Tested on: SkMel5
Assay: cell count relative to DMSO control; melanoma cells; higher = more viable cells
Conditions: library dose: standard library concentration; 72 h
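Note: cells treated in 1,536-well plates, then fixed and DAPI-stained, with nuclei counted from automated high-throughput microscope images.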

| Compound | cell count [%] |
| --- | --- |
| Cn1cnc2c(F)c(Nc3ccc(Br)cc3Cl)c(C(=O)NOCCO)cc21 [selumetinib] + COc1ccc(COc2ccc(Cc3cnc(N)nc3N)cc2OC)cc1 [GW2580] (first compound 0.075 µM, partner dose 5 µM) | 69.7 |
| CCN(CC)CCNC(=O)c1c(C)[nH]c(/C=C2\C(=O)Nc3ccc(F)cc32)c1C [sunitinib] + Oc1cc(-c2nc(-c3ccccc3)[nH]c2-c2ccncc2)ccc1Cl [L779450] (first compound 2 µM, partner dose 1 µM) | 30.5 |
| Cn1cnc2c(F)c(Nc3ccc(Br)cc3Cl)c(C(=O)NOCCO)cc21 [selumetinib] + CCN(CC)CCCCNc1ncc2cc(-c3cc(OC)cc(OC)c3)c(NC(=O)NC(C)(C)C)nc2n1 [PD173074] (first compound 0.075 µM, partner dose 0.5 µM) | 62.3 |
| COc1cc([C@@H]2c3cc4c(cc3[C@@H](O[C@@H]3O[C@@H]5CO[C@@H](C)O[C@H]5[C@H](O)[C@H]3O)[C@H]3COC(=O)[C@H]23)OCO4)cc(OC)c1O [etoposide] + CCCCCCCCCCCC1=C(O)C(=O)C=C(O)C1=O [Embelin] (first compound 0.1 µM, partner dose 6 µM) | 98.3 |
| CCN(CC)CCNC(=O)c1c(C)[nH]c(/C=C2\C(=O)Nc3ccc(F)cc32)c1C [sunitinib] + Cc1cc([N+](=O)[O-])ccc1NS(=O)(=O)c1cc(Cl)ccc1Cl [FH535] (first compound 2 µM, partner dose 5 µM) | 44.4 |
